From a compilation of properties of binary mixtures (doi:10.1021/acs.jpcb.8b11892)
The densities may have been worked out from excess volumes.

Test: xn = mol fraction of the nth substance listed
Conditions: 101 kPa

O + CCOS(=O)(=O)[O-].CC[n+]1ccn(C)c1
x2 = 0
Conditions	mass density [kg/m3]
293.15 K	998
298.15 K	996
303.15 K	995
313.15 K	992

CCOS(=O)(=O)[O-].CC[n+]1ccn(C)c1 + O
mass density [kg/m3]
Conditions	293.15 K	298.15 K	303.15 K	313.15 K
x1 = 0.001	1000	998	997	994
x1 = 0.003	1004	–	1000	–
x1 = 0.004	–	1005	1004	1000
x1 = 0.006	1013	1011	1009	1005
x1 = 0.008	1018	–	–	–
x1 = 0.013	1028	1025	1023	–
x1 = 0.019	1039	1036	1034	–
x1 = 0.032	1061	1058	1056	1051
x1 = 0.047	1084	–	–	1072
x1 = 0.071	1111	–	1105	1098
x1 = 0.103	1138	1134	1131	1124
x1 = 0.151	–	1161	1157	–
x1 = 0.229	1190	1186	1183	1175
x1 = 0.303	–	–	1197	–
x1 = 0.473	–	–	1214	1207
x1 = 0.588	1227	1224	–	–

CC[n+]1ccn(C)c1.O=S(=O)([O-])C(F)(F)F + O
mass density [kg/m3]
Conditions	293.15 K	298.15 K	303.15 K	313.15 K
x1 = 0.001	1001	998	997	993
x1 = 0.002	1007	1005	1004	1000
x1 = 0.004	–	1011	1009	–
x1 = 0.005	1019	–	1016	1012
x1 = 0.008	1027	–	–	1020
x1 = 0.012	1043	–	1039	1035
x1 = 0.017	1058	–	–	–
x1 = 0.029	–	–	1086	–
x1 = 0.041	–	–	1120	1113
x1 = 0.064	1161	–	1155	1148
x1 = 0.094	1201	1197	1194	1186
x1 = 0.137	1242	–	–	–
x1 = 0.216	1285	1281	1277	1269
x1 = 0.391	1333	1329	–	1316
x1 = 0.463	–	1342	1338	1330
x1 = 0.512	–	1348	–	1336
x1 = 0.73	–	1368	1364	–
x1 = 1	1387	1383	1379	1370
